According to PubChem BioAssay (NCATS):
Inconclusive results, whose numbers are uncertain, are shown. Potencies of inconclusive entries are doubtful fits and often do not repeat.

Target: DNA polymerase eta (Homo sapiens) (UniProt Q9Y253)
Test: qHTS for Inhibitors of Polymerase Eta: Confirmatory Assay for Cherry-picked Compounds (AID 720502)
Conditions: Pol eta primer extension, TAMRA/BHQ fluorescence, 10 min; active = well fitted inhibition curve with a large enough effect; inconclusive = small, poorly fitted or top-dose-only effect, or another doubt; inactive = no such curve, though single readings can be large or run the other way
Method in brief: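 Human Pol eta at 10 nM was preincubated with compound for 15 min at room temperature. Reaction was started with TAMRA/BHQ-2-labelled primer-template substrate (50 nM final), with fluorescence read at 0 and 10 min (ex 525, em 598 nm).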
Potency is read from the fitted curve at half-maximal effect; tags tell the direction and shape of the fitted curve.

Chain of UniProt Q9Y253 (Q9Y253 whole entry, looked up): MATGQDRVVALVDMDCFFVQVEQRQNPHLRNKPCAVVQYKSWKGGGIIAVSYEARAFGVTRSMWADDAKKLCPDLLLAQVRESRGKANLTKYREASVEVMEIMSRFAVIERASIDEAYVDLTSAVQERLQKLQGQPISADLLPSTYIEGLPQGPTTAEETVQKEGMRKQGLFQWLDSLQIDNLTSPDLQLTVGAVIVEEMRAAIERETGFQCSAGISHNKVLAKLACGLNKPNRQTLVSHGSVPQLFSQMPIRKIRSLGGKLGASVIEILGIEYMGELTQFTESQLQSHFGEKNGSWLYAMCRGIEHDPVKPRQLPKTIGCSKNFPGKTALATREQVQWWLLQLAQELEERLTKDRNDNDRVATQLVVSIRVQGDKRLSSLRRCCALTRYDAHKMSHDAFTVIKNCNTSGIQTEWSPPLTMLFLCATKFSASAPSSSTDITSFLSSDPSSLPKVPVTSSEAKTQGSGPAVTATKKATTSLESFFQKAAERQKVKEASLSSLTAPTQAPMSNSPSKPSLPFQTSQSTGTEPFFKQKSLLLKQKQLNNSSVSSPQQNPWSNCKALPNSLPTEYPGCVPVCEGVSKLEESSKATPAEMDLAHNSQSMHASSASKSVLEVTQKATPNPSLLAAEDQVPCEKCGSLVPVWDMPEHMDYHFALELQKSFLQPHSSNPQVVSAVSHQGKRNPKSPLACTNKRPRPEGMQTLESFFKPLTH

Potency, inconclusive:
C#CCN1C(=O)S/C(=C\c2ccc(-c3ccc(Cl)c(C(=O)O)c3)o2)C1=O 84.9 µM [inhibitor, single point], Cc1ccc(NC(=O)CCNS(=O)(=O)c2ccc3c(c2)oc(=O)n3C)cc1 95.3 µM [inhibitor, single point], S=C(NCc1ccco1)NCc1ccco1 84.9 µM [inhibitor, single point], COc1cc(/C=C/C(=O)O)cc(S(=O)(=O)Nc2ccccc2C(=O)NCc2ccco2)c1OC 75.7 µM [inhibitor, partial curve], CSc1ccccc1NC(=O)c1cc2ncc(Br)cn2n1 95.3 µM [inhibitor, single point], O=C(/C=C\c1ccco1)c1ccc(NC(=O)c2ccco2)cc1 84.9 µM [inhibitor, single point], CC1(OC(=O)CCc2ccccc2)C(=O)C=C2C=C3CCCN3C=C2C1=O (stereo unspecified) 75.7 µM [inhibitor, single point], O=C(CCS(=O)(=O)c1ccc(Br)cc1)Nc1ccc(Cl)c(C(F)(F)F)c1 95.3 µM [inhibitor, single point], Cc1nc2ccc3nc(NC(=O)c4ccco4)sc3c2s1 75.7 µM [inhibitor, partial curve], Nc1cc2c(cc1[N+](=O)[O-])OCO2 84.9 µM [inhibitor, single point], COc1cc(NS(=O)(=O)c2ccc(N/C=C(\C#N)c3nc4cc(Cl)ccc4o3)cc2)nc(OC)n1 84.9 µM [inhibitor, single point]
